Measured values reported in the RNAGym collection of RNA variant scans (doi:10.1073/pnas.2313332121).
Variants at the floor of the assay are shown more often than the library holds them.

B1: TPR 5TU (parent)
chain: GGAUCUUCUCGAUCUAACAAAAAAGACAAAUCUGCCACAAAGCUUGAGAGCAUCUUCGGAUGCAGAGGCGGCAGCCUUCGGUGGCGCGAUAGCGCCAACGUUCUCAACUAUGACACGCAAAACGCGUGCUCCGUUGAAUGGAGUUUAUCAUG

Variants of: B1
Test: polymerase ribozyme fitness, log enrichment relative to wild type (log ratio); higher = more active; in vitro selection for triplet polymerase activity
Procedure, shortened: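 A heterodimeric triplet polymerase ribozyme had each of its subunits mutagenized by PCR into a library, which was transcribed. One round of in vitro selection, done in triplicate, annealed each library with a biotinylated primer, its partner subunit and triplets, then incubated it frozen at −7 °C before gel excision of extended constructs, streptavidin-bead capture and RT-PCR. Fitness is the logarithm of genotype enrichment relative to wild-type enrichment, based on Illumina sequencing of inputs and outputs and inverse-variance-weighted replicate averages. A base-2 logarithm is used, and genotypes were kept only with ≥10 input reads and ≥1 read per output.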

Row | Variant | polymerase ribozyme fitness (log ratio)
1 | C27U G42A A47G A60G G83U U90G C96G A110C C132G | ≤ -4.2
2 | C27U G48A C69A C96A A121G | ≤ -4.2
3 | C27U G48U G141A U148C | ≤ -4.2
4 | C27U G50C C87A C105G | ≤ -4.2
5 | C27U G50C G65A A66C U78G C85U A115G | ≤ -4.2
6 | C27U G50U U55A C96A A110G G133U | -3.94
7 | C27U G58A G59C C99U U102G A120C C125U A150G | ≤ -4.2
8 | C27U G58C C123U | -1.57
9 | C27U G62A G70U C87G C131A G140C A150G | ≤ -4.2
10 | C27U G65U A121G G141U U148G | ≤ -4.2
11 | C27U G68U A107G G124U | ≤ -4.2
12 | C27U G71U G133A U146G | ≤ -4.2
13 | C27U G84A A89G | -3.59
14 | C27U G86A U145A G152A | ≤ -4.2
15 | C27U G86U A115C A142U | ≤ -4.2
16 | C27U G86U C99G | ≤ -4.2
17 | C27U G94A | -2.73
18 | C27U U31C G34C C75A G86C A91U | ≤ -4.2
19 | C27U U31G U55G G94C A113C | ≤ -4.2
20 | C27U U33A A40U U53A G88A | ≤ -4.2
21 | C27U U33C A49C G94A A110U A119U | ≤ -4.2
22 | C27U U33G C95U | -3.46
23 | C27U U33G C96U G126A G143C U151G | ≤ -4.2
24 | C27U U33G G42C U44A G59C C93A G94U | ≤ -4.2

Row | Variant | polymerase ribozyme fitness (log ratio)
25 | C27U U44A G46A C54A C116G A147U | ≤ -4.2
26 | C27U U44G U56A G58C U61A G86U U135C | ≤ -4.2
27 | C27U U45A G46U C51U C57A U77A A91U U127C | ≤ -4.2
28 | C27U U45A G71A C75A A89U C118A | ≤ -4.2
29 | C27U U53A C85G | -3.88
30 | C27U U53A U61A C69G G88C | ≤ -4.2
31 | C27U U55A C99G A138G | ≤ -4.2
32 | C27U U55A G68U C85G | ≤ -4.2
33 | C27U U55A G83A C95A C96A A113G G143C | ≤ -4.2
34 | C27U U56A G84U G86C C114G U145A | ≤ -4.2
35 | C27U U56G C79A C85G | ≤ -4.2
36 | C27U U61C A91U | ≤ -4.2
37 | C27U U61G U82G A89U A91G G100A A113U G140U | ≤ -4.2
38 | C27U U139A | ≤ -4.2
39 | A28C | -3.75
40 | A28C A30U G59A C72A C96U | ≤ -4.2
41 | A28C A30U G86A | ≤ -4.2
42 | A28C A37G A41C C57G A73U | ≤ -4.2
43 | A28C A37G G48C C87A A97U C125U | ≤ -4.2
44 | A28C A37U A40C G59C A115U | ≤ -4.2
45 | A28C A39U | ≤ -4.2
46 | A28C A40C G81A G94A G133A G141U | ≤ -4.2
47 | A28C A40U U45A U61A | ≤ -4.2
48 | A28C A40U U53A C96A | ≤ -4.2

Row | Variant | polymerase ribozyme fitness (log ratio)
49 | A28C A41G C51A U78G G80U G88A C96G U135A G141A | ≤ -4.2
50 | A28C A41U C43U G46C C85A U130G U135C | ≤ -4.2
51 | A28C A47C G62C C72U C76A C93G C99A | ≤ -4.2
52 | A28C A47C U101G | ≤ -4.2
53 | A28C A47U G81U G86U U127A | ≤ -4.2
54 | A28C A52U C87U | ≤ -4.2
55 | A28C A60G A64G G67C G80U C85A | ≤ -4.2
56 | A28C A60G A66G U77G | ≤ -4.2
57 | A28C A60U A73G C93A C125U | ≤ -4.2
58 | A28C A64C C96A C116G U146G | ≤ -4.2
59 | A28C A121U | ≤ -4.2
60 | A28C A137U | ≤ -4.2
61 | A28C C32U C69G G83U A147G | ≤ -4.2
62 | A28C C32U U56C C79A C87G G136A | ≤ -4.2
63 | A28C C35U U61A G124C | ≤ -4.2
64 | A28C C35U U77C A97G C123U C132G U134A | ≤ -4.2
65 | A28C C36U U44C G59A U82C C85A A97U C108U C114U C131G A137C U151A | ≤ -4.2
66 | A28C C38G A39C G74U G141U | ≤ -4.2
67 | A28C C38U G48C C54A A60U C76A C93G G140U | ≤ -4.2
68 | A28C C38U G70C | ≤ -4.2
69 | A28C C43U C76G A110G A138U | ≤ -4.2
70 | A28C C51A C57A G88A C93G | ≤ -4.2
71 | A28C C51U | ≤ -4.2
72 | A28C C51U U77C C79G G84U G100U C132G | ≤ -4.2

Row | Variant | polymerase ribozyme fitness (log ratio)
73 | A28C C54A C95A C105U U145A | ≤ -4.2
74 | A28C C54A U82A | ≤ -4.2
75 | A28C C54G G59A C96G U111A G143U | ≤ -4.2
76 | A28C C57U G84A C96U G124U | ≤ -4.2
77 | A28C C57U U82C C85G U111G A137U | ≤ -4.2
78 | A28C C63U C85U A142C G152U | ≤ -4.2
79 | A28C C69U | ≤ -4.2
80 | A28C C75U C85U A91U G128A | ≤ -4.2
81 | A28C C76G C95U | ≤ -4.2
82 | A28C C76U C85U G88C C99G | ≤ -4.2
83 | A28C C87A C125U | ≤ -4.2
84 | A28C C87U | ≤ -4.2
85 | A28C C87U G94A C96U C103A C108A C125A | ≤ -4.2
86 | A28C C93A | ≤ -4.2
87 | A28C C93A C105A A115G A122G C129U | ≤ -4.2
88 | A28C C96U G100A C105G A119U | ≤ -4.2
89 | A28C G34A C38G C72U C76A C96G U151A | ≤ -4.2
90 | A28C G34C A91G A106U U134A A150C | ≤ -4.2
91 | A28C G34U U53A C105G A147C | ≤ -4.2
92 | A28C G46C A64C G65A U151G | ≤ -4.2
93 | A28C G46C C76G U82A A89C G124A | ≤ -4.2
94 | A28C G46C G84A C85U C96U C116U C149U | ≤ -4.2
95 | A28C G50A U56C | ≤ -4.2
96 | A28C G50A U90G | ≤ -4.2

Row | Variant | polymerase ribozyme fitness (log ratio)
97 | A28C G50U C54G G83A C95U | ≤ -4.2
98 | A28C G58U A113G A119U | ≤ -4.2
99 | A28C G59C G92U A120U U145C | ≤ -4.2
100 | A28C G59U A91G U135C | ≤ -4.2
101 | A28C G59U G92A C95U A107G | ≤ -4.2
102 | A28C G65U C85U | ≤ -4.2
103 | A28C G65U G68A A91U | ≤ -4.2
104 | A28C G67A C75U U82C G128U | ≤ -4.2
105 | A28C G67A G100C A119G C131U U145G | ≤ -4.2
106 | A28C G74A | ≤ -4.2
107 | A28C G80C C87G | ≤ -4.2
108 | A28C G81C C87A A120U G126A | ≤ -4.2
109 | A28C G84U A97C | ≤ -4.2
110 | A28C G84U G88C A91G G124U | ≤ -4.2
111 | A28C U33C C93A G126C | ≤ -4.2
112 | A28C U33G C54U A120G | ≤ -4.2
113 | A28C U33G U77C U90G C93A U148C G152A | ≤ -4.2
114 | A28C U44G U53A C85G | ≤ -4.2
115 | A28C U45A G92U U134G | ≤ -4.2
116 | A28C U55A G58A G81A | ≤ -4.2
117 | A28C U55G G68A G100A | ≤ -4.2
118 | A28C U56A C72U C76G | ≤ -4.2
119 | A28C U61A | ≤ -4.2
120 | A28C U77G U90C C114U | ≤ -4.2

Row | Variant | polymerase ribozyme fitness (log ratio)
121 | A28C U78G | ≤ -4.2
122 | A28C U82G | ≤ -4.2
123 | A28C U82G G88C G152A | ≤ -4.2
124 | A28C U134A | ≤ -4.2
125 | A28G | -2.24
126 | A28G A29U A37C C85A G141C | ≤ -4.2
127 | A28G A29U A89C G141C | ≤ -4.2
128 | A28G A37C C57A C85A U134G G136C | ≤ -4.2
129 | A28G A37C U61A C63A C76A G80A C96U | ≤ -4.2
130 | A28G A39C U55A U56A G62C C76G A107G | ≤ -4.2
131 | A28G A40G G50A A52G G65U C96U | -3.77
132 | A28G A40G G50U C51A C99U A110U C132U | ≤ -4.2
133 | A28G A40U G62A C63G C108A G128U | ≤ -4.2
134 | A28G A41C A52G C87U U90A | ≤ -4.2
135 | A28G A41G U45A G94C A97U | -3.76
136 | A28G A49C C76U G94U A150G | ≤ -4.2
137 | A28G A49C C96U C132U | ≤ -4.2
138 | A28G A52C G84A C99G | ≤ -4.2
139 | A28G A52C U53C C57U C87A G141A | ≤ -4.2
140 | A28G A52U C57A C72G G86C C96U | ≤ -4.2
141 | A28G A60C C93U C131A G141C | ≤ -4.2
142 | A28G A60C G67U C85U U90C C108A C131A G140U A150G | ≤ -4.2
143 | A28G A73G C87G A98G U102G | ≤ -4.2
144 | A28G A106C G133U A142C | ≤ -4.2

Row | Variant | polymerase ribozyme fitness (log ratio)
145 | A28G C36G A52U C87A A89U | ≤ -4.2
146 | A28G C38A G58C G62C U77A C96A C125G | ≤ -4.2
147 | A28G C43G G86U G133A A137U | ≤ -4.2
148 | A28G C51G G94U | ≤ -4.2
149 | A28G C57A A73G C87U U139A | ≤ -4.2
150 | A28G C75G G88A U139G G141C | -3.97
151 | A28G C76U C96A U151G | ≤ -4.2
152 | A28G C79G C85U A115C U151A | ≤ -4.2
153 | A28G C85G A150C | ≤ -4.2
154 | A28G C93U C118A | ≤ -4.2
155 | A28G C95U C103G C114U A142C | ≤ -4.2
156 | A28G G34A G83C C118G | ≤ -4.2
157 | A28G G34U A41G C93G | ≤ -4.2
158 | A28G G42A C76A A91U G117A | ≤ -4.2
159 | A28G G42U G50C G59A C95U C99A C125U | ≤ -4.2
160 | A28G G50C A60C A73G C85A C125A | ≤ -4.2
161 | A28G G50C C51U G80C C96G G140U G143A | ≤ -4.2
162 | A28G G50U C51U G59C U77A U144A | ≤ -4.2
163 | A28G G68A C132A G143C A150G | ≤ -4.2
164 | A28G G68C C87U U90G C116A G117A G128C G133U U139A G143A | ≤ -4.2
165 | A28G G70C G133C | ≤ -4.2
166 | A28G G88U G92A A98G G133U U144A | ≤ -4.2
167 | A28G G92C C99U A115G G143U | ≤ -4.2
